Experimental data taken from PubChem BioAssay AID588342 (National Center for Advancing Translational Sciences (NCATS), 2011).
Among all 360,000 compounds or so, about 25,000 (6.9%) were called active. The shares of active, inactive and inconclusive entries below differ from those in the screen. Calls follow the shape of the dose curve; as a rule, active = well fitted inhibition curve with a large enough effect; inconclusive = small, poorly fitted or top-dose-only effect; inactive = flat fitted curve, though single readings scatter. A potency beside an inconclusive call is a rough fit, not a confirmed value.

molecular target: Luciferin 4-monooxygenase (Photinus pyralis) (UniProt P08659); test: qHTS profiling assay for firefly luciferase inhibitor/activator using purifed enzyme and Km concentrations of substrates (counterscreen for miR-21 project); details: purified FLuc, luminescence inhibition; series mostly up to 57.5 µM; also: nearly all actives have a fitted effect of over 55% in size
Method in brief: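 Purified P. pyralis luciferase (10nM final) with 10uM D-luciferin and 10uM ATP (Km levels) in 50mM Tris acetate pH 7.5, 10mM Mg acetate, 0.01% Tween-20, 0.05% BSA; qHTS 6-point titration, ~60 µM downward; luminescence read.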
Potency is read from the fitted curve at half-maximal effect; tags tell the direction and shape of the fitted curve.

Sequence of UniProt P08659 (P08659 whole entry, looked up): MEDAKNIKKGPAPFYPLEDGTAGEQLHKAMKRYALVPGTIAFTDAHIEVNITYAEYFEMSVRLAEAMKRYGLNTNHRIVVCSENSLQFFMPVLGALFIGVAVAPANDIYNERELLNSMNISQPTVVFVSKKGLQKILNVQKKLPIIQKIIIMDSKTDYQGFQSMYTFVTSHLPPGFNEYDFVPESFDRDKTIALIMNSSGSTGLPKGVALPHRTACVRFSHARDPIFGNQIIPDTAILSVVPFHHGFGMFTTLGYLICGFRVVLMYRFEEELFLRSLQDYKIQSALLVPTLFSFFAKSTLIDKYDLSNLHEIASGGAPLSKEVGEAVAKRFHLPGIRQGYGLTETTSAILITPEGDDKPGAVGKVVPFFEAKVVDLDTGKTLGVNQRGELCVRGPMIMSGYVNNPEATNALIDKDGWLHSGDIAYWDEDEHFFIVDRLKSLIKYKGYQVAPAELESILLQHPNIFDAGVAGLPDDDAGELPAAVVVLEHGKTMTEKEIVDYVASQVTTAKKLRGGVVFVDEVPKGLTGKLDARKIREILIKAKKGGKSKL

Row | Structure (SMILES) | Potency
1 | N#Cc1cc(C(=O)c2cc(Br)ccc2O)cn(Cc2ccccc2)c1=O | inconclusive: 23.9 µM [inhibitor, partial curve, poor fit]
2 | O=C(N/N=C/c1ccc([N+](=O)[O-])o1)c1cc(-c2ccc(-c3ccccc3)cc2)nc2ccccc12 | active: 0.151 µM
3 | Cc1ccc(NC(=O)c2cnccn2)c(C)c1 | inconclusive: 30.1 µM [inhibitor, partial curve, poor fit]
4 | Cc1[nH]c2ccc(C(=O)NC3CCC(C)CC3)cc2c1C (centres undefined) | inconclusive: 2.69 µM [inhibitor, partial curve, poor fit]
5 | CCC(=O)Nc1cccc(-c2cc3ccccc3oc2=O)c1 | active: 12 µM
6 | CC(C)OC(=O)c1cc2c(=O)[nH]c(C(Cl)(Cl)Cl)nc2o1 | inconclusive: 21.3 µM [inhibitor, partial curve, poor fit]
7 | Cc1c(/C=N/NC(=O)CNc2ccccc2)c2ccccn2c1C(=O)c1ccccc1 | inconclusive: 37.9 µM [inhibitor, partial curve, poor fit]
8 | C/C(=N\NC(=O)C1CC1)c1ccc(C)c(C)c1 | inconclusive: 23.9 µM [inhibitor, partial curve]
9 | CCOC(=O)c1[nH]c2ccccc2c1NC(=O)c1ccc(S(=O)(=O)N2CCOCC2)cc1 | inconclusive: 30.1 µM [inhibitor, partial curve, poor fit]
10 | CC(=O)NS(=O)(=O)c1ccc(NC(=O)c2ccc3c(c2)C(=O)N(CCC(C)C)C3=O)cc1 | inactive
11 | Nc1ccc(Cc2nc3cc4ccccc4cc3[nH]2)cc1 | active: 19 µM
12 | Cc1nc(CSc2nnc(Nc3cccc(C)c3C)s2)cs1 | inconclusive: 21.3 µM [inhibitor, partial curve, poor fit]
13 | O=C(NCCSc1ncc(-c2ccccc2)[nH]1)c1ccco1 | inconclusive: 21.3 µM [inhibitor, single point]
14 | Nc1cnc(Nc2ccc(Br)cc2)nc1N | active: 15.1 µM
15 | CCC(=O)Oc1ccc2c(C)cc(=O)oc2c1C(=O)c1ccccc1 | inconclusive: 33.8 µM [inhibitor, single point]
16 | Cn1cc(C(=O)c2ccc(F)cc2)cc1-c1nc2ccccc2n1C | inactive
17 | CC(=O)CC(c1ccc([N+](=O)[O-])cc1)c1c(O)c2ccccc2oc1=O (centres undefined) | inconclusive: 30.1 µM [inhibitor, partial curve, poor fit]
18 | Cc1c(NC(=S)NC(=O)c2ccc(COc3ccccc3)cc2)cccc1C(=O)O | inconclusive: 37.9 µM [inhibitor, single point]
19 | O=C(NCc1ccncc1)c1ccc(S(=O)(=O)Nc2ccccc2)cc1 | inactive
20 | Cc1ccc(NC(=O)COc2ccccc2C(=O)NCCc2ccccc2)cc1 | active: 21.3 µM
21 | CC1CCN(S(=O)(=O)c2ccc3nc(Nc4ccc(C#N)cc4)ccc3c2)CC1 | inactive
22 | O=C(NN=C1C2CC3CC(C2)CC1C3)c1cc(Cl)ccc1O | inconclusive: 30.1 µM [inhibitor, single point]
23 | Cc1ccc(OCCn2nnc3ccccc32)cc1C | active: 21.3 µM
24 | c1ccc2oc(NC3=NCN(C4CCCCC4)CN3)nc2c1 | inconclusive: 7.57 µM [inhibitor, partial curve, poor fit]
25 | Cc1cccc(OCCSc2nc(-c3cccs3)nc3cc(=O)[nH]n23)c1 | active: 15.1 µM

Row | Structure (SMILES) | Potency
26 | COc1ccc(C(=O)OCC(=O)NCC2CCCCC2)c(OC)c1 | inactive
27 | CC(=O)c1cccc(NC(=O)c2ccc(C)o2)c1 | inconclusive: 23.9 µM [inhibitor, partial curve, poor fit]
28 | O=C1COc2ccc(C(=O)COc3ccc(Cl)cc3Br)cc2N1 | inconclusive: 13.5 µM [inhibitor, partial curve, poor fit]
29 | COc1cc(NC(=O)Cc2ccccc2)ccc1NC(=O)c1ccccc1 | inactive
30 | COc1ccc2oc(C(=O)OCC(=O)NC3CC3)c(C)c2c1 | inconclusive: 23.9 µM [inhibitor, partial curve, poor fit]
31 | Cc1ncc(CO)c(/C=N/NC(=S)Nc2cccc(Cl)c2)c1O | inconclusive: 37.9 µM [inhibitor, partial curve, poor fit]
32 | C=CCn1c(/N=C/c2ccc(N(C)C)cc2)nc2ccccc21 | active: 0.135 µM
33 | Cc1ccn2c(c1)nc(=S)n2C(=O)c1ccccc1 | active: 0.135 µM
34 | CN(C)c1ccc(/C=C(\NC(=O)c2ccccc2)C(=O)NCc2ccncc2)cc1 | inconclusive: 23.9 µM [inhibitor, single point]
35 | Cc1ccc(S(=O)(=O)N2CCCCC2)cc1NC(=O)[C@@H]1CCCN1C(=O)c1cccs1 | inactive
36 | O=C(CNc1cccc(F)c1)N1CCc2ccccc2C1 | active: 13.5 µM
37 | Cc1ccsc1C(=O)N/N=C/c1ccc([N+](=O)[O-])cc1 | inconclusive: 4.78 µM [inhibitor, full curve]
38 | Cc1oc2ccc(O)cc2c1C(=O)c1ccccc1 | inconclusive: 19 µM [inhibitor, partial curve, poor fit]
39 | Cc1cc(Cl)ccc1OCCCC(=O)OCC(=O)Nc1cccc(S(N)(=O)=O)c1 | inconclusive: 26.9 µM [inhibitor, single point]
40 | O=C(Nc1ccc(Cl)cc1)C(c1ccccc1)N(CCO)CCO (centres undefined) | inconclusive: 21.3 µM [inhibitor, partial curve, poor fit]
41 | Cc1cc(C(=O)N/N=C/c2ccc(N(C)C)o2)cs1 | inconclusive: 23.9 µM [inhibitor, single point]
42 | CCOc1ccc(NC(=O)CSc2nc3[nH]ncc3c(=O)n2-c2ccccc2OC)cc1 | inconclusive: 26.9 µM [inhibitor, single point]
43 | O=c1c(C(c2nnnn2C2CCCCC2)N2CCCCC2)coc2ccc(Cl)cc12 (centres undefined) | inactive
44 | CCc1nc(N2CCN(C(=O)CCl)CC2)c2c3c(sc2n1)CC(C)CC3 (centres undefined) | inconclusive: 37.9 µM [inhibitor, partial curve, poor fit]
45 | Cc1ccc(N2C(=O)C3C4C=CC(CNC(=S)N5CCN(c6ccccc6)CC5)(O4)C3C2=O)cc1 (centres undefined) | inactive
46 | O=C(CCCOc1ccccc1)N1CCN(c2ccc(F)cc2)CC1 | active: 26.9 µM
47 | O=C(CSc1n[nH]c(-c2ccco2)n1)Nc1ccccc1Cl | inactive
48 | O=C(C1=NN[C@@H]2C(=O)N(c3ccccc3C(F)(F)F)C(=O)[C@H]12)C(c1ccccc1)c1ccccc1 | inactive
49 | Oc1ccc(/C=N/Nc2ccc(C(F)(F)F)cn2)c(O)c1 | active: 12 µM
50 | CCOc1ccc(CCNC(=O)CN2C(=O)c3cccnc3Oc3ccc(Cl)cc32)cc1 | inactive

Row | Structure (SMILES) | Potency
51 | O=C(Nc1nccs1)c1ccc2c(c1)OCO2 | active: 6.01 µM
52 | Cc1cc(C)cc(Nc2nc3ccccc3c(=O)[nH]2)c1 | inconclusive: 21.3 µM [inhibitor, partial curve, poor fit]
53 | c1ccc(-c2n[nH]c(-c3ccccc3)c2-c2nc3ccccc3[nH]2)cc1 | inactive
54 | CN(/N=C/c1cc(Br)cc(Br)c1O)c1cccc(C(F)(F)F)n1 | inactive
55 | CSc1cccc(NC(=O)Cc2ccccc2[N+](=O)[O-])c1 | inconclusive: 21.3 µM [inhibitor, single point]
56 | Oc1ccccc1C1=NN(c2ccccc2)C(c2ccccc2)C1 (centres undefined) | inconclusive: 26.9 µM [inhibitor, partial curve]
57 | Cc1ccc(NC(=O)CCC(=O)c2cccs2)c(Br)c1 | inconclusive: 23.9 µM [inhibitor, single point]
58 | CCCCN(C(=O)c1ccc(S(=O)(=O)N(CC)CC)cc1)c1c(N)n(CCC)c(=O)[nH]c1=O | inactive
59 | CCOC(=O)c1cnc2c(-c3ccccc3)cnn2c1N | active: 0.601 µM
60 | CCC(=O)n1nc(-c2ccc(Cl)cc2)nc1SC | inconclusive: 21.3 µM [inhibitor, partial curve]
61 | O=C(OCc1nc2ccccc2s1)c1cccs1 | active: 2.69 µM
62 | COc1ccccc1Nc1nc(NCc2ccco2)c2ccccc2n1 | active: 19 µM
63 | CCOC(=O)c1c(NC(=O)/C=C\C(=O)O)sc(C)c1-c1ccccc1 | inconclusive: 37.9 µM [inhibitor, single point]
64 | O=C(CSc1nccn1Cc1ccccc1)Nc1ccc2c(c1)OCO2 | inconclusive: 26.9 µM [inhibitor, partial curve, poor fit]
65 | CCOC(=O)N1CCC(NC(=O)c2ccc3c(c2)N(Cc2cc(C)ccc2C)C(=O)c2ccccc2S3=O)CC1 (centres undefined) | inactive
66 | Cc1cc(C)c2c(n1)nn1c(C)c(CCC(=O)NCc3ccc(Cl)cc3)c(C)nc21 | inactive
67 | O=C(Nc1cc(F)ccc1F)c1cc2nc(-c3ccco3)cc(C(F)(F)Cl)n2n1 | inactive
68 | O=C(O)/C=C/c1ccccc1Oc1ccc(Cl)cc1Cl | active: 15.1 µM
69 | CCCCCCC(C)n1cc(C(C)=O)c(=O)[nH]c1=O (centres undefined) | inactive
70 | CCOc1ccc(-c2cn3c(n2)sc2cc(C(=O)NCCc4ccc(OC)c(OC)c4)ccc23)cc1 | inconclusive: 1.69 µM [inhibitor, full curve]
71 | Cc1nc2ccc(NC(=O)c3ccc(C)c(S(=O)(=O)N4CCOCC4)c3)cc2s1 | inconclusive: 16.9 µM [inhibitor, partial curve]
72 | Cc1ccc(-c2nc(CNC(=O)c3cc(C)on3)cs2)cc1 | inactive
73 | CCOc1ccc2nc(SCC(=O)NCc3ccc(S(N)(=O)=O)cc3)sc2c1 | inconclusive: 21.3 µM [inhibitor, partial curve, poor fit]
74 | O=C(CSCc1ccccc1)Nc1cccc(C(=O)Nc2ccc(C(=O)O)cc2)c1 | inconclusive: 23.9 µM [inhibitor, partial curve]
